These results are taken from publication PMC10726135.

The list shows a part of the results. At the low end of the ranking, values are background and their order means little. Measured with an extract: partners may take part in the binding.

For the assay, the target named is T1, HNF4alpha8 (COS-7 nuclear extract) (UniProt P41235-5).
T1 sequence: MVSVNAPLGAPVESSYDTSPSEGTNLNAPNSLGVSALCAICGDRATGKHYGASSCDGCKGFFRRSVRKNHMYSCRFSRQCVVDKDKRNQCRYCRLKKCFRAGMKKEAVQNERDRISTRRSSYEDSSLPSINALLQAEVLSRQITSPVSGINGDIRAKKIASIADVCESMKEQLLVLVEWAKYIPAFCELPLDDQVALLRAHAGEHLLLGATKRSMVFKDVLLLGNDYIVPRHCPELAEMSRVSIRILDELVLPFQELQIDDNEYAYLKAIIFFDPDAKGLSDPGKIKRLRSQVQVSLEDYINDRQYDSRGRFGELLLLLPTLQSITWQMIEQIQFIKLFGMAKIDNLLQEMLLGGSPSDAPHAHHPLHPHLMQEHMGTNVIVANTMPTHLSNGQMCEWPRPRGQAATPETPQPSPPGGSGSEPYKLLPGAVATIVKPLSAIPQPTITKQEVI
The experiment in a line: protein-binding microarray. The following applies: COS-7 nuclear extract on double-stranded Agilent 4x180k PBM; binding buffer, salt, pH and temperature not given; high values mean tight binding; double strand, one strand shown; sequences stand for … in …GCCTAGGGAGATTAGAGTATCGGTCGA
Take GGGGAAAGTGCAAGGGCCCAGAGGAAGGAA: the binding signal (log2 normalized intensity) was -1.28.

As to GGATATTGGCAACGCCTCAGAAGCAAAGTC, the binding signal (log2 normalized intensity) was -1.48.

With TAGTTATTCAGTACAGACTTGTGTAATAAC, the binding signal (log2 normalized intensity) is 0.939.

As to AGTTGAGAATTCCAGAGATGCCAGGAGAGC, the binding signal (log2 normalized intensity) was -1.29.

For the sequence AGCCTTACCAGTAGGACCACATTCAATCAT, the binding signal (log2 normalized intensity) is -1.2.

AAAAAGCTATCATTTGTCACTTGGACTATT: the binding signal (log2 normalized intensity) stood at 3.62.

Take TTGGTGAGTCTTAGGGAGGGGCCAGGACAA: the binding signal (log2 normalized intensity) was -1.26.

Consider AAAGTGACACATTCCAGGCGAGTTTGGGCT, for which the binding signal (log2 normalized intensity) is -1.25.

Regarding AAATTTCAGATATCTGAATGTACCTTTGAA, the binding signal (log2 normalized intensity) is 3.09.

For TGTGCAGACCTTCTCTGGCCCTCACTTACA, the binding signal (log2 normalized intensity) is -1.23.

With GTCCTTTCAGGACACCTTCAGGGCTGAGCC, the binding signal (log2 normalized intensity) is 0.705.

ATATCAGTGGCACTCTCTGGGTTAAACGTG: the binding signal (log2 normalized intensity) is 1.34.

With CCAGAATCCTAACTGCAAGGAAATCTGGGA, the binding signal (log2 normalized intensity) is -1.48.

GACTTTGGCTTTTCCAAAGGATCCCAGGAA: the binding signal (log2 normalized intensity) was -1.33.

For CTGCCTATCTCCTATGAGCCAAACACCATG, the binding signal (log2 normalized intensity) is -1.29.

For the sequence TCCCCAGACAGCCACTGTTTGACGACTGTC, the binding signal (log2 normalized intensity) was -1.11.

As for AACGGGTTAGACGCACGGCAGAGCACCTGG, the binding signal (log2 normalized intensity) was -1.35.

For CTCTGAATAACTGCTTTGTGGCATCAGGGT, the binding signal (log2 normalized intensity) turned out to be 0.685.

As to CTTTCCTGCAGAGGGACTGACTCCCTTTTC, the binding signal (log2 normalized intensity) was -0.672.

Take CCGTCAATCTGCAGCCGCCGGAGAATTAAA: the binding signal (log2 normalized intensity) is -1.24.

As to TGCAGGTGGGAGAGGGGGACTGCAAGTACG, the binding signal (log2 normalized intensity) is -1.47.

For the sequence TCTGCTACTTAAGATAGAGGCTTTAGCAAT, the binding signal (log2 normalized intensity) was -1.31.

Turning to CATATAAGGAACAAAGTCAGGTGCCAAAGG, the binding signal (log2 normalized intensity) was determined as 1.22.

As for GTCTCTCAGGCACAGCTCGACCTTTGACCT, the binding signal (log2 normalized intensity) was determined as 10.

On to GATTTGAAGGAGCAGAATAAGGCCCAGTGT, for which the binding signal (log2 normalized intensity) was -0.567.

As for TTTGACATCCAAAGTTTCCTCTCCTGCCCT, the binding signal (log2 normalized intensity) was determined as 2.45.

As for TGACCACTCTGCCAGGTGACCACTCTGTAA, the binding signal (log2 normalized intensity) was -0.56.

On to AGACAGTGTGGCAGAAAACGCAATTGCCCT, for which the binding signal (log2 normalized intensity) was 2.13.

With GCTTTGCGGAGAGGGTTCTCACTCCTCTAT, the binding signal (log2 normalized intensity) was -1.29.

With ATAAGAAACCCAAGATTTGGTGTTACCTTT, the binding signal (log2 normalized intensity) stood at 1.46.

Regarding CTGCCCTTCCACCCACTTTATCTTCTATAG, the binding signal (log2 normalized intensity) is 1.52.

Turning to CTTTACCACCCTCACAGCTCAATCCAACAA, the binding signal (log2 normalized intensity) was -1.29.

In the case of AGAAGGGGACAAGCACATTAGGAGGAAAAA, the binding signal (log2 normalized intensity) is -1.3.

With CAACAACACAGATCATATCATTTATTTGCT, the binding signal (log2 normalized intensity) is -1.21.

With CCTCTGTTGCTTCAAAGGGCAAAAGGGCAA, the binding signal (log2 normalized intensity) came to 5.69.

ACTTGCGGGCGGGGGGTGGGGTGGAAGCTA: the binding signal (log2 normalized intensity) is -1.22.

Turning to CCTCCCCCTGGGGACAGGTGTTAATGTCTA, the binding signal (log2 normalized intensity) was found to be 2.19.

As for TGTGGTGTTCGCTAAGATGTAGCAAGAATG, the binding signal (log2 normalized intensity) worked out at 0.683.

As for ACGTTCACGTCTCAAGCTTCAGGAGTCCAC, the binding signal (log2 normalized intensity) was 2.71.

CCTGCAACAGCCCCATGAGATAGGTACTAT: the binding signal (log2 normalized intensity) was 0.633.

In the case of CCAATGTGGAGCTGCTGAACTATTGAACCA, the binding signal (log2 normalized intensity) was determined as 3.36.

As for AAACGGATGCAAAGGCTGAGCCCTTATCTT, the binding signal (log2 normalized intensity) is -1.35.

Consider AGTTGTTCAAAGTCCATGTGTTAAATAATA, for which the binding signal (log2 normalized intensity) was 4.23.

For TAGAATGGAACTGAAGGCAGGAAAGGGCCT, the binding signal (log2 normalized intensity) was -1.31.

CCTGTGTGCATGGAGTGCACTGTGATCTTT: the binding signal (log2 normalized intensity) was 3.87.

Take ACAGGTTGGAGACGCAGAGAAGCACTGCAG: the binding signal (log2 normalized intensity) is -1.29.

In the case of TGAAGACACTGAGGAAAAGCTGTCTACAAA, the binding signal (log2 normalized intensity) was -1.26.

Take GGAATTCTCTTCCCAACAGGAGATTACTTC: the binding signal (log2 normalized intensity) is -0.194.

Consider CTGGTGGACTTTGCTCTGCTCATTTTTCCC, for which the binding signal (log2 normalized intensity) was 5.77.

For the sequence TGGTAAGCAGACCCCTACTGGGGATGGACT, the binding signal (log2 normalized intensity) came out at 2.46.

Take TCTTGGGTCAAAGTCTCTGGTACAAAATTA: the binding signal (log2 normalized intensity) turned out to be 2.89.

As for AGGTCGCAAGCACTGGCTCTGGGGTCAAAG, the binding signal (log2 normalized intensity) turned out to be 4.08.

Take AGTCCAGAACCTGGAACCTAGAGGCCTTTC: the binding signal (log2 normalized intensity) was -1.26.

For TGCAATTCTCTTTGCCAAAGCATAGCAAGA, the binding signal (log2 normalized intensity) is -1.48.

As for TTCTAAAGAACATTCCAGCTTTGAAGTGCT, the binding signal (log2 normalized intensity) was -1.27.

As to TCTGCAGCAGATGGCCAGCCTTTGGACTTT, the binding signal (log2 normalized intensity) amounted to 8.08.

On to AGTAGCTCACAAATACTCACCCTTGGATTA, for which the binding signal (log2 normalized intensity) stood at 0.978.

On to CTGATCAAAGGTCATTGGTATTGATAGCGC, for which the binding signal (log2 normalized intensity) is 5.24.

Regarding CCAAGGCTGAAGGTCTCGAGGCCTCTTTAT, the binding signal (log2 normalized intensity) is -0.0513.

Consider TACTTGAACCCTACTCATAATTGCTATGTC, for which the binding signal (log2 normalized intensity) is 1.15.

As to AAAAACAACTAAAGGAATGCGCCTGAACTG, the binding signal (log2 normalized intensity) was -1.32.

CATTCCACAGCAGAGGAGCCCTGGGCTCAG: the binding signal (log2 normalized intensity) is -1.22.

Turning to ATCGCCTAGTACTCCTGCCCCTGTGCAATA, the binding signal (log2 normalized intensity) turned out to be 3.01.

On to CAGGTGTAACAGTTGCAGCTTCAGGAGCTG, for which the binding signal (log2 normalized intensity) is -1.3.

As to TGTATACTTATGTAGAAAGATATCTCTGTG, the binding signal (log2 normalized intensity) stood at 1.3.

With AGGGAGACAAAGTGTCACAAACTATCAGTG, the binding signal (log2 normalized intensity) was -1.35.

Turning to GGCAATTGATAATGATGTTTACATTCCAGA, the binding signal (log2 normalized intensity) was 1.15.

Turning to GAGGTACCTAGGGGACATTCTTTAGAGGCT, the binding signal (log2 normalized intensity) is -1.3.

As to ATTACATCCAGAGTGGGACAAAGTTCCCCG, the binding signal (log2 normalized intensity) is 1.91.

As for TTGGTTTCCTACGGCTGCTGTAACAAGTGG, the binding signal (log2 normalized intensity) worked out at 0.83.

Turning to TACAAAGTTCACTTTCTTGTTTACTCACCT, the binding signal (log2 normalized intensity) is 1.78.

On to CTTTTTGACCTTGCAGTGGCAAGGCAAAAG, for which the binding signal (log2 normalized intensity) is 2.28.
